Measured values published in PubChem BioAssay AID485341 (National Center for Advancing Translational Sciences (NCATS), 2010).
Among all 330,000 compounds or so, about 1,700 (0.52%) were called active. Inconclusive means that the source gave no clear call. Such entries were picked first, then a sample of the others. The call rests on the fitted dose curve; in most records, active means well fitted inhibition curve with a large enough effect; inconclusive means small, poorly fitted or top-dose-only effect; inactive means no such curve, though single readings can be large or run the other way. Where the call is inconclusive, the potency comes from a doubtful curve fit.

target: Beta-lactamase (Escherichia coli (strain K12)) (UniProt P00811); assay: qHTS Inhibitors of AmpC Beta-Lactamase (assay without detergent); details: AmpC nitrocefin hydrolysis, absorbance 480 nm, 0.0001% Triton; activity change, negative = inhibition: at 57.1 µM (top of the series) unless noted; further: nearly all actives have a fitted effect of over 20% in size
Description: NIH Molecular Libraries Probe Production Network [MLPCN] NIH Chemical Genomics Center [NCGC] Assay Provider: Professor Brian Shoichet, UCSF Assay Overview: This aggregation profiling approach exploits the sensitivity of aggregate formation to detergent. Inhibition of b-lactamase is measured in the presence and absence of 0.01% Triton X-100. This particular assay had the prescence of 0.01% Triton X-100. See Pubchem assay "Promiscuous and Specific Inhibitors of AmpC Beta-Lactamase (assay without detergent)" for related screen. Compounds that inhibit only in the absence of detergent are considered likely promiscuous aggregators. A screen of 1,030 compounds was performed in Brian Shoichet's lab in 96-well format. AmpC activity was measured by following the absorbance at 480 nm. Nitrocefin is a chromogenic substrate: while nitrocefin is yellow (lmax 390 nm), the product of its hydrolysis is red (lmax 486 nm, 17,000 M-1). AmpC beta lactamase was provided by Shoichet Lab, UCSF.
Buffer: 20 mM phosphate buffer, pH 7.0 Triton X-100: No Detergent screen: 0.0001%, Detergent screen: 0.01%. Reagents/Controls: Buffer in columns 3 and 4 as negative control (no enzyme). 5.3 nM AmpC in columns 1, 2, 5-48. Titration of UCSF compound 9 control (from 10 mM, then 1:2) pin-transferred to column 2. Column 1 is neutral (100% activity). Assay Steps: Six uL of reagents were dispensed to 1536-well Greiner black clear bottom plates. Compounds and controls (23 nL) were transferred via Kalypsys PinTool. The plates were incubated for 15 min at room temperature, and then 2 uL of 800 uM solution of nitrocefin was added to start the reaction. The plates were immediately transferred to and read every 20 seconds for 4 min on ViewLux (Perkin-Elmer) High-throughput CCD imager using 480 nm absorbance protocol. During dispense, reagent bottles were kept submerged into 4 deg C water bath. Keywords: NIH Roadmap, MLSCN, MLI, MLSMR, qHTS, NCGC, AmpC Beta-Lactamase, Aggregation
Potency means the concentration at half of the fitted maximal effect; tags describe the fitted curve by direction and shape.

Chain of UniProt P00811 (P00811 whole entry, looked up): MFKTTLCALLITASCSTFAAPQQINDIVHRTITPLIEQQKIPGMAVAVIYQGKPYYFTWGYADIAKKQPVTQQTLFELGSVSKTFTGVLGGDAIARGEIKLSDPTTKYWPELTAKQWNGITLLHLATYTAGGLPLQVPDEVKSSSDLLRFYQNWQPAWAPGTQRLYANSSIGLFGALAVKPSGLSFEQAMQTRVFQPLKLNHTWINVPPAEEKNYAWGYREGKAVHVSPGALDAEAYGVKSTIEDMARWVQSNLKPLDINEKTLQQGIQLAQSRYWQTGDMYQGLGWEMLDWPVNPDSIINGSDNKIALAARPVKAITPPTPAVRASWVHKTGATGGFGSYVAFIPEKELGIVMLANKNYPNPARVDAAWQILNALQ

| SMILES | Potency | activity change, negative = inhibition |
| --- | --- | --- |
| Oc1ccc(C=Nc2ccccc2-c2nc3ccccc3[nH]2)cc1 | inconclusive: 25.1 µM [inhibitor, single point] | – |
| O=C(/C=C/c1ccccc1Cl)c1ccccc(=O)c1O | inconclusive: 28.2 µM [inhibitor, single point] | – |
| NNC(=O)c1ccc2[nH]c3c(c2c1)CCCC3 | active: 25.1 µM | – |
| O=c1cc(-c2ccccc2)c2cc3c(cc2[nH]1)OCCO3 | – | inactive: -21.2% |
| O=C(/C=C/c1ccccc1)c1ccc(NC2=NCCCS2)cc1 | active: 28.2 µM | – |
| Cc1ccc(SCCNC(=O)c2ccccc2F)cc1 | inconclusive: 35.5 µM [inhibitor, single point] | – |
| CCc1ccc(Nc2nnc(SCC(=O)Nc3sccc3C(N)=O)s2)cc1 | active: 15.8 µM | – |
| CN(C)S(=O)(=O)c1ccc(C(=O)OCn2nnc3ccccc3c2=O)cc1 | active: 10 µM | – |
| Cc1cc(C)c(S(=O)(=O)c2ccccc2C)c(SCC(C)C)n1 | active: 0.251 µM | – |
| Cc1[nH]n(-c2ccccc2)c(=O)c1/C=N/N1C(=O)c2cccc3cccc(c23)C1=O | – | inactive: -33.1% |
| O=C(N/N=C/c1ccc(N2CCOCC2)cc1)c1ccccn1 | – | inactive: -2.73% |
| CCCC(=O)Nc1ccc(C(=O)NNC(=S)NC(=O)c2cccs2)cc1 | inconclusive: 39.8 µM [inhibitor, single point] | – |
| CC(=O)Nc1ccc(S(=O)(=O)Nc2nc(-c3ccc(C(C)(C)C)cc3)cs2)cc1 | active: 35.5 µM | – |
| CCCCn1c(N)c(N(CC(C)C)C(=O)c2cc(-c3ccc(F)cc3)nc3ccccc23)c(=O)[nH]c1=O | inconclusive: 3.55 µM [inhibitor, full curve] | – |
| Cc1cc(N2CCN(C)CC2)nc2ccc(NC(=O)c3ccc4c(c3)OCO4)cc12 | – | inactive: 123% |
| Cc1ccc(OCCn2c(NC(=O)c3ccco3)nc3ccccc32)cc1 | active: 20 µM | – |
| COCC(C)NC(=O)c1cc(-c2ccc(OC)c(OC)c2)on1 (stereo not given) | inconclusive: 0.158 µM [inhibitor, full curve, poor fit] | – |
| O=c1ccc(N=Nc2ccccc2)ccc1O | inconclusive: 14.1 µM [inhibitor, partial curve] | – |
| COc1ccccc1Nc1nc(N)nc(CSC(=S)N2CCCCC2)n1 | – | inactive: -26.6% |
| COCCOC(=O)c1c(C)oc2ccc(OC(=O)c3c(OC)cccc3OC)cc12 | inconclusive: 6.31 µM [inhibitor, single point] | – |
| Cc1ccc(N(Cc2cc3ccccc3[nH]c2=O)C(=O)c2cccs2)cc1 | inconclusive: 8.91 µM [inhibitor, full curve, poor fit] | – |
| O=C1NC(=O)N(Cc2ccco2)C(=O)/C1=C\c1ccc(-c2ccc(F)cc2)o1 | inconclusive: 31.6 µM [inhibitor, single point] | – |
| Cn1c(N)c(C(=O)COC(=O)c2cc(-c3ccco3)nc3ccccc23)c(=O)n(Cc2ccccc2)c1=O | inconclusive: 3.16 µM [inhibitor, partial curve] | – |
| CC(=O)c1ccc(S(=O)c2ccccc2)cc1 (stereo not given) | inconclusive: 4.47 µM [inhibitor, single point] | – |
| O=C1[C@H]2[C@@H](c3ccc(F)cc3)N3C(=O)N(c4cccc(Br)c4)C(=O)[C@@]3(Cc3ccc(Cl)cc3)[C@H]2C(=O)N1C1CCCCC1 | inconclusive: 1.58 µM [inhibitor, full curve, poor fit] | – |

| SMILES | Potency | activity change, negative = inhibition |
| --- | --- | --- |
| CC1(C)C/C(=N\NC(=S)Nc2ccccc2F)c2cc(O)ccc2O1 | inconclusive: 28.2 µM [inhibitor, single point] | – |
| COc1ccc(S(=O)(=O)Oc2ccc3c(c2)O/C(=C\c2cccnc2)C3=O)cc1 | – | inactive: -21.1% |
| CC(C)N1CCN(c2ccc(S(=O)(=O)N3CCOCC3)cn2)CC1 | – | inactive: -9.13% |
| CC(=O)c1ccc(OCCOc2ccc([N+](=O)[O-])cc2)cc1 | – | inactive: -17% |
| N#C/C(=C\c1ccc(N2CCCCC2)c([N+](=O)[O-])c1)c1nn(-c2ccccc2)c(N)c1C#N | – | inactive: -38.1% |
| N=c1c(C(=O)NC2CCCCC2)cc2c(=O)n3ccccc3nc2n1Cc1cccnc1 | – | inactive: 1.55% |
| Nc1ccc(C2=Nc3cccc4cccc(c34)N2)cc1 | inconclusive: 10 µM [inhibitor, partial curve] | – |
| CCOC(=O)C1CCN(C(=O)COC(=O)/C=C/c2ccccc2)CC1 | – | inactive: 31.3% |
| Cc1cccc(N(CC(N)=O)C2SC(=O)N(c3ccccc3)C2=O)c1 (stereo not given) | inconclusive: 6.31 µM [inhibitor, single point] | – |
| Cc1ccc(-n2nc3c(c2NC(=O)c2ccco2)CS(=O)C3)cc1 (stereo not given) | – | inactive: -0.426% |
| O=C(Nc1ccc2nc(-c3cccs3)[nH]c2c1)c1ccco1 | inconclusive: 35.5 µM [inhibitor, single point] | – |
| CC1CCCCN1C(=O)CSc1nnc(-c2ccco2)o1 (stereo not given) | – | inactive: -2.81% |
| COc1ccc(OC)c(NC(=O)Nc2ccc3c(c2)CCC3)c1 | active: 8.91 µM | – |
| COc1ccc(NS(=O)(=O)c2ccc(O)c(NC(=O)c3ccc(S(=O)(=O)N4CCCC4)cc3)c2)cc1 | inconclusive: 10 µM [inhibitor, partial curve, poor fit] | – |
| Cn1c(=O)c2[nH]c(NCC3CCCO3)nc2n(-c2ccccc2)c1=O (stereo not given) | inconclusive: 8.91 µM [inhibitor, single point] | – |
| COc1ccccc1NC(=O)c1cc(-c2cc(OC)c(OC)c(OC)c2)nc2ccccc12 | – | inactive: 10.4% |
| CC(=O)Nc1cccc(C(=O)OC(C)C(=O)NC(=O)NC2CCCCC2)c1 (stereo not given) | inconclusive: 28.2 µM [inhibitor, single point] | – |
| COc1cc(/C=N/Nc2cccc(C)c2)cc(Br)c1O | active: 31.6 µM | – |
| Nc1nc(-c2ccc(Br)cc2)cs1 | inconclusive: 28.2 µM [inhibitor, partial curve] | – |
| N#CCC(=O)N/N=C/c1coc2ccccc2c1=O | inconclusive: 39.8 µM [inhibitor, single point] | – |
| CCN(CC)C(=O)COC(=O)c1cc(-c2ccco2)nc2ccccc12 | – | inactive: -26.1% [at 11.4 µM] |
| c1cc(Nc2ncnc3sc4c(c23)CCC4)ccn1 | – | inactive: -17.8% |
| Cc1ccsc1C(=O)N(c1nc2ccccc2s1)c1c(C)cccc1C | – | inactive: -23.8% |
| Cc1csc(=O)n1CC(=O)OCC(=O)Nc1cc(S(=O)(=O)N2CCOCC2)ccc1Cl | inconclusive: 35.5 µM [inhibitor, single point] | – |
| CN1CCN(c2cc(=O)n(Cc3ccc(F)cc3)c(=O)[nH]2)CC1 | active: 0.562 µM | – |

| SMILES | Potency | activity change, negative = inhibition |
| --- | --- | --- |
| COc1ccccc1C(=O)NC1CCSc2ccccc21 (stereo not given) | – | inactive: -16% |
| CNC(=S)NNC(=O)Cc1ccccc1 | active: 0.282 µM | – |
| CC(C)(C)N=C1NN=C(c2ccc(Cl)cc2)CS1 | inconclusive: 14.1 µM [inhibitor, partial curve] | – |
| CC(C)(C)C(=O)NC(NC(=S)Nc1sc2c(c1C#N)CCCC2)C(Cl)(Cl)Cl (stereo not given) | active: 1.12 µM | – |
| Cc1ccc(S(=O)(=O)N2CCC(C(=O)NNC(=O)c3ccccc3O)CC2)cc1C | inconclusive: 17.8 µM [inhibitor, single point] | – |
| O=C(O)c1cc(O)c2c(c1)[C@@H]([C@H]1c3cc(C(=O)O)cc(O)c3C(=O)c3c(O[C@@H]4O[C@H](CO)[C@@H](O)[C@H](O)[C@H]4O)cccc31)c1cccc(O[C@@H]3O[C@H](CO)[C@@H](O)[C@H](O)[C@H]3O)c1C2=O | active: 1.26 µM | – |
| COc1ccc(/C=C/C(=O)c2cc(Br)ccc(=O)c2O)cc1 | inconclusive: 17.8 µM [inhibitor, partial curve] | – |
| CCOC(=O)CCC(NC(=O)c1ccc(NCN2C(=O)c3ccccc3C2=O)cc1)C(=O)OCC (stereo not given) | – | inactive: 14.7% |
| O=C(NN=Cc1c(O)ccc2ccccc12)c1ccc2c(c1)OCO2 | – | inactive: -16.8% |
| O=C(NNc1cc(C(F)(F)F)nc2ccccc12)Nc1cccc(Cl)c1 | inconclusive: 39.8 µM [inhibitor, single point] | – |
| O=C(CNc1ccc(F)cc1)c1ccccc1 | – | inactive: -20.2% |
| Cc1ccc(C2=NC(=O)/C(=C/c3cc(O)c(O)c(Br)c3)S2)cc1 | active: 17.8 µM | – |
| CCN(CC)c1ccc(CNc2ccc3c(c2)ncn3C(C)(C)C)cc1 | – | inactive: 46.3% |
| Cc1ccc(C2=Nc3ccccc3N=C(c3ccco3)C2)c(O)c1 | – | inactive: -10.9% |
| CN(c1ccc(OC(=O)CN2C(=O)NC3(CCCC3)C2=O)cc1)S(=O)(=O)c1ccccc1 | inconclusive: 25.1 µM [inhibitor, single point] | – |
| O=C(COc1ccccc1Cl)N1CCN(c2ccccn2)CC1 | inconclusive: 39.8 µM [inhibitor, single point] | – |
| O=C(COc1ccccc1)N/N=C/c1ccc2c(c1)OCO2 | inconclusive: 7.94 µM [inhibitor, full curve, poor fit] | – |
| COc1ccc(/C=N\NC(=O)c2ccccc2OC)cc1COc1ccccc1C | – | inactive: -11.5% |
| CSc1ncccc1C(=O)OCC(=O)N(C)c1c(N)n(Cc2ccccc2)c(=O)[nH]c1=O | inconclusive: 35.5 µM [inhibitor, single point] | – |
| C[C@@H](NC(=O)OC(C)(C)C)c1nnc(S(=O)(=O)Cc2ccccc2)o1 | active: 10 µM | – |
| Cc1ccc(Cl)cc1NC(=S)N1CCC(c2ccccc2)C1 (stereo not given) | – | inactive: -16.5% |
| Nc1nc(SCC(=O)Nc2ccccc2)nc2nc3c(cc12)CCCC3 | active: 15.8 µM | – |
| O=C(Nc1ccccc1Cl)c1ccc2c(c1)N(Cc1ccc(F)cc1)C(=O)CS2=O (stereo not given) | inconclusive: 31.6 µM [inhibitor, single point] | – |
| O=C(Nc1ccc(N2CCOCC2)c(S(=O)(=O)Nc2ccccc2Cl)c1)c1ccc(F)cc1 | inconclusive: 3.98 µM [inhibitor, full curve, poor fit] | – |
| Cc1cc2ncn(C3CC(=O)N(Cc4ccc(N5CCCC5=O)cc4)C3=O)c2cc1C (stereo not given) | inconclusive: 12.6 µM [inhibitor, partial curve, poor fit] | – |
